The list shows a part of the results.
How the values were obtained:
Test in all cases: glycan array binding signal (z-score within array); higher = stronger binding
Conditions in all cases: glycan notation: IUPAC condensed, linker removed; mutation: Y228W
[1] = molecular target: Gal(b1-3)GlcNAc(b1-2)Man(a1-3)[Gal(b1-3)GlcNAc(b1-2)Man(a1-6)]Man(b1-4)GlcNAc(b1-4)GlcNAc
In short: (§1)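 Glycan array data came from 3228 arrays in the Consortium for Functional Glycomics database, and only arrays with an available protein sequence were kept. Glycan names were put into IUPAC-condensed notation, and columns mapping to the same glycan were averaged. The binding signal is a within-array Z-score, averaged across arrays of one protein sequence run at different concentrations or buffers and across linkers. A negative Z-score can be read as non-binding.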

[2] = molecular target: Gal(b1-3)GlcNAc(b1-2)Man(a1-3)[Gal(b1-3)GlcNAc(b1-2)Man(a1-6)]Man(b1-4)GlcNAc(b1-4)[Fuc(a1-6)]GlcNAc
In short: as §1

[3] = molecular target: Gal(b1-3)GlcNAc(b1-2)Man(a1-3)[GlcNAc(b1-4)][Gal(b1-3)GlcNAc(b1-2)Man(a1-6)]Man(b1-4)GlcNAc(b1-4)GlcNAc
In short: as §1

[4] = molecular target: Gal(b1-3)GlcNAc(b1-2)[Gal(b1-3)GlcNAc(b1-6)]Man(a1-6)[Gal(b1-3)GlcNAc(b1-2)Man(a1-3)]Man(b1-4)GlcNAc(b1-4)GlcNAc
In short: as §1

[5] = molecular target: Gal(b1-3)GlcNAc(b1-3)Gal(b1-3)GlcNAc
In short: as §1

[6] = molecular target: Gal(b1-3)GlcNAc(b1-3)Gal(b1-4)Glc
In short: as §1

[7] = molecular target: Gal(b1-3)GlcNAc(b1-3)Gal(b1-4)GlcNAc
In short: as §1

[8] = molecular target: Gal(b1-3)GlcNAc(b1-3)Gal(b1-4)GlcNAc(b1-2)Man(a1-3)[Gal(b1-3)GlcNAc(b1-3)Gal(b1-4)GlcNAc(b1-2)Man(a1-6)]Man(b1-4)GlcNAc(b1-4)GlcNAc
In short: as §1

[9] = molecular target: Gal(b1-3)GlcNAc(b1-3)Gal(b1-4)GlcNAc(b1-2)[Gal(b1-3)GlcNAc(b1-3)Gal(b1-4)GlcNAc(b1-6)]Man(a1-6)[Gal(b1-3)GlcNAc(b1-3)Gal(b1-4)GlcNAc(b1-2)Man(a1-3)]Man(b1-4)GlcNAc(b1-4)[Fuc(a1-6)]GlcNAc
In short: as §1

[10] = molecular target: Gal(b1-3)GlcNAc(b1-3)Gal(b1-4)GlcNAc(b1-3)Gal(b1-4)GlcNAc(b1-2)[Gal(b1-3)GlcNAc(b1-3)Gal(b1-4)GlcNAc(b1-3)Gal(b1-4)GlcNAc(b1-6)]Man(a1-6)[Gal(b1-3)GlcNAc(b1-3)Gal(b1-4)GlcNAc(b1-3)Gal(b1-4)GlcNAc(b1-2)Man(a1-3)]Man(b1-4)GlcNAc(b1-4)[Fuc(a1-6)]GlcNAc
In short: as §1

[11] = molecular target: Gal(b1-3)GlcNAc(b1-3)Gal(b1-4)GlcNAc(b1-6)[Gal(b1-3)GlcNAc(b1-3)]Gal(b1-4)Glc
In short: as §1

[12] = molecular target: Gal(b1-3)GlcNAc(b1-3)Gal(b1-4)[Fuc(a1-3)]GlcNAc
In short: as §1

[13] = molecular target: Gal(b1-3)GlcNAc(b1-3)Gal(b1-4)[Fuc(a1-3)]GlcNAc(b1-6)[Gal(b1-3)GlcNAc(b1-3)]Gal(b1-4)Glc
In short: as §1

[14] = molecular target: Gal(b1-3)GlcNAc(b1-3)GalNAc
In short: as §1

[15] = molecular target: Gal(b1-3)GlcNAc(b1-6)Gal(b1-4)GlcNAc
In short: as §1

[16] = molecular target: Gal(b1-3)GlcNAc(b1-6)GalNAc
In short: as §1

[17] = molecular target: Gal(b1-3)GlcNAc(b1-6)[Gal(b1-3)]GalNAc
In short: as §1

Gal(b1-3)GlcNAc6S = molecular target: Gal(b1-3)GlcNAc6S
In short: as §1

[18] = molecular target: Gal(b1-3)[Fuc(a1-4)]GlcNAc
In short: as §1

[19] = molecular target: Gal(b1-3)[Fuc(a1-4)]GlcNAc(b1-2)Man
In short: as §1

[20] = molecular target: Gal(b1-3)[Fuc(a1-4)]GlcNAc(b1-2)Man(a1-3)[Gal(b1-3)[Fuc(a1-4)]GlcNAc(b1-2)Man(a1-6)]Man(b1-4)GlcNAc(b1-4)[Fuc(a1-6)]GlcNAc
In short: as §1

[21] = molecular target: Gal(b1-3)[Fuc(a1-4)]GlcNAc(b1-3)Gal(b1-3)[Fuc(a1-4)]GlcNAc
In short: as §1

[22] = molecular target: Gal(b1-3)[Fuc(a1-4)]GlcNAc(b1-3)Gal(b1-4)[Fuc(a1-3)]GlcNAc
In short: as §1

[23] = molecular target: Gal(b1-3)[Fuc(a1-4)]GlcNAc(b1-6)GalNAc
In short: as §1

[24] = molecular target: Gal(b1-3)[GlcNAc(b1-6)]GalNAc
In short: as §1

[25] = molecular target: Gal(b1-3)[Neu5Ac(a2-6)]GalNAc
In short: as §1

[26] = molecular target: Gal(b1-3)[Neu5Ac(a2-6)]GlcNAc(b1-4)Gal(b1-4)Glc
In short: as §1

[27] = molecular target: Gal(b1-3)[Neu5Ac(b2-6)]GalNAc
In short: as §1

Gal(b1-4)Gal = molecular target: Gal(b1-4)Gal
In short: as §1

[28] = molecular target: Gal(b1-4)GalNAc(a1-3)[Fuc(a1-2)]Gal(b1-4)GlcNAc
In short: as §1

B1: Epa1-NP-mutant-Y228W (Candida glabrata), Q6VBJ0 (protein)
chain: MILNPALFLNKCVCIYTTLILLLLTNGGYATSSNDISLASKDPTTFPLGCSPDITTPKKGLSMELYSYDFRKKGSYPCWDAAYLDPNYPRTGYKSHRLLAKVDGVTGNINFYYHATKGCTPQLGHLPASYNYPKPLTMTNFTMLLYGYFRPKVTGFHTFTISADDLLFVNFGAGNAFDCCRRDSSADHFGNYQAYAIWGSKTAKDELTVHLDAGVYYPIRLFYNNREWDGALSFTFKTESNENTVSDFSEYFFSLDDTEEGCPGLISYDSSCASVKTSKIIGIDYHTETPNENLVPITKTIYHLGIPCTGTTTTPLCGSGFYDPLANKCVTINTSSTSSVTKTTSHTTSKEVSFHSSISSQKTLIPKSIPSPYGPIKSQSIPTEMETSSEISSSEYAFSDVISTPSHSPYTKKHSSLNSSSYTSTVIHSLTSYSISQGIFSTSLSEQNITSKSSTDKFSTATSMSNNITQSSIIISQFSTNNENYTTTSMHTSSDKISTETLNNSISTTTSILFSNSSTILKNNTTIISSDKDTHYHPVNPTIVCSTNKTEIICASITQPSISNSNNHWSSSVLKFNSTTVRSTLPSSAGSNETSINVPFSSSTESNTSTSSTSTSNSKMVRSTLPSSAGSNETSISVPFSSSTESNTSTSSTSTSNSKMVRSTLPSSAGSNETSINVPFSSSTESNTSTSSTSTSNSKTVRSTPFSSAGIIMTSLSQRNNKSASSYASSNSKCYNTADSCRKVHSTPSYLLTSSYTSEGVDYDCSLVSTKLKINDTNCVNNKHTTKSCLKTSVTTTIPTLEIKTARKSSSNTIGLHSYPTSSPNKSISSAPIIGYISSFKTIKTASPSYQTSDLTTITTITSLNNPGSTAVENTHESNDKSRKTSSNDISSKHSVIKETKDAVESSNKSHQTNTLKCSSIIIASSSHNSYESLGGTTLTLTLSKVYSPQNNDTLPFLEISEVNPSRTVLPESSKMMQYLTSTEERNKTARNTIATNIVSISTFHFEGEGNAIRMGYTQLLLMLIGIIVMNIGT
glycan array binding signal (z-score) [1]: -0.191
glycan array binding signal (z-score) [2]: 0.073
glycan array binding signal (z-score) [3]: -0.255
glycan array binding signal (z-score) [4]: 0.125
glycan array binding signal (z-score) [5]: -0.251
glycan array binding signal (z-score) [6]: -0.144
glycan array binding signal (z-score) [7]: -0.333
glycan array binding signal (z-score) [8]: -0.274
glycan array binding signal (z-score) [9]: 0.351
glycan array binding signal (z-score) [10]: 0.333
glycan array binding signal (z-score) [11]: 0.168
glycan array binding signal (z-score) [12]: -0.147
glycan array binding signal (z-score) [13]: -0.494
glycan array binding signal (z-score) [14]: -0.127
glycan array binding signal (z-score) [15]: 0.294
glycan array binding signal (z-score) [16]: -0.205
glycan array binding signal (z-score) [17]: 0.311
glycan array binding signal (z-score) (Gal(b1-3)GlcNAc6S): 0.221
glycan array binding signal (z-score) [18]: -0.287
glycan array binding signal (z-score) [19]: 0.162
glycan array binding signal (z-score) [20]: 0.37
glycan array binding signal (z-score) [21]: -0.413
glycan array binding signal (z-score) [22]: -0.061
glycan array binding signal (z-score) [23]: 0.075
glycan array binding signal (z-score) [24]: 0.692
glycan array binding signal (z-score) [25]: 0.486
glycan array binding signal (z-score) [26]: -0.504
glycan array binding signal (z-score) [27]: -0.277
glycan array binding signal (z-score) (Gal(b1-4)Gal): -0.091
glycan array binding signal (z-score) [28]: -0.291

Reference: the supplement of paper PMC8728848
